Reference: US20250223331A1, “GLP-1/GIP DUAL-TARGETED POLYPEPTIDE AND FUSION PROTEIN AND APPLICATIONS THEREOF” (SUNSHINE LAKE PHARMA CO., LTD., priority 2021, published 2025)
Positions count from the first letter of the chain named.

Tests used:
[1] = molecular target: GLP-1R (UniProt P43220); assay: cell-based or functional assay
[2] = molecular target: T1, GIPR (UniProt P48546 22-466, limits assumed); assay: cell-based or functional assay
T1 sequence (looked up): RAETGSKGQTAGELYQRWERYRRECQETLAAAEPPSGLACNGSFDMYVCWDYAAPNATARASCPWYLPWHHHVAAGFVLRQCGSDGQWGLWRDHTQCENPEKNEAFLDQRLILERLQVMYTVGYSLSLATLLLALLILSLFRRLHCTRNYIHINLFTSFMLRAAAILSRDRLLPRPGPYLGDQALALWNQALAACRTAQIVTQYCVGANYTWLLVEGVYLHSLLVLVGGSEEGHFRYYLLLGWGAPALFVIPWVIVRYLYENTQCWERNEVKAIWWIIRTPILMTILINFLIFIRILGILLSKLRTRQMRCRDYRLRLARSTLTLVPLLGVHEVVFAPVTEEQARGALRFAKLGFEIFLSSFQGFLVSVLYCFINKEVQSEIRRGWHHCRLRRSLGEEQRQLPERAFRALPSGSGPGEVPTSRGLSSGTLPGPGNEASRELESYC

B1: HEC-G87 (Fc fusion)
chain: YGEGTFTSDYSIYLDKIAQRDFIEWLIAGGPSSGAPPPSGGGGSGGGGSGGGGSA[here human IgG4 Fc with S228P F234A L235A (EU numbers) without letters]
EC50, cAMP [1]: 127 pM
EC50, cAMP [2]: 266 pM

B2: HEC-G120 (Fc fusion)
chain: B1 chain with Y1H, G2S, Y13L, R20K, D21E, I27L, A28E
EC50, cAMP [1]: 92 pM
EC50, cAMP [2]: 71 pM

B3: HEC-G126 (Fc fusion)
chain: B1 chain with Y13L, D21E, I27L
EC50, cAMP [1]: 965 pM
EC50, cAMP [2]: 15 pM

B4: HEC-G103 (Fc fusion)
chain: B1 chain with Y13A, I17K, G29Q
EC50, cAMP [1]: 4920 pM
EC50, cAMP [2]: 1220 pM

B5: HEC-G133 (Fc fusion)
chain: B1 chain with G2S, Y13L, R20Q, I23V, I27L
EC50, cAMP [1]: 63200 pM
EC50, cAMP [2]: 6 pM

B6: HEC-G114 (Fc fusion)
chain: B1 chain with Y1H, G2S, Y13L, R20H
EC50, cAMP [1]: 47 pM
EC50, cAMP [2]: 34 pM

B7: HEC-G97 (Fc fusion)
chain: B1 chain with G2S, Y13A, I17K, I23V, I27L
EC50, cAMP [1]: 4380 pM
EC50, cAMP [2]: 825 pM

B8: HEC-G99 (Fc fusion)
chain: B1 chain with Y13A, I17K, E24D, I27L
EC50, cAMP [1]: 1940 pM
EC50, cAMP [2]: 1140 pM

B9: HEC-G112 (Fc fusion)
chain: B1 chain with I17Q, R20H, D21A
EC50, cAMP [1]: 268 pM
EC50, cAMP [2]: 564 pM

B10: HEC-G100 (Fc fusion)
chain: B1 chain with I17K, E24N, I27L
EC50, cAMP [1]: 211 pM
EC50, cAMP [2]: 464 pM

B11: HEC-G93 (Fc fusion)
chain: B1 chain with R20Q, D21A, I23V, I27L
EC50, cAMP [1]: 8590 pM
EC50, cAMP [2]: 437 pM

B12: HEC-G117 (Fc fusion)
chain: B1 chain with Y1H, G2S, Y13L, D21E, I27L, A28E
EC50, cAMP [1]: 47 pM
EC50, cAMP [2]: 32 pM

B13: HEC-G113 (Fc fusion)
chain: B1 chain with Y1H, G2S, Y13L, R20Q, I23V, I27L
EC50, cAMP [1]: 395 pM
EC50, cAMP [2]: 66 pM

B14: HEC-G128 (Fc fusion)
chain: B1 chain with Y13L, I17K, I27L
EC50, cAMP [1]: 394 pM
EC50, cAMP [2]: 112 pM

B15: HEC-G89 (Fc fusion)
chain: B1 chain with Y13A, I17Q, I23V, I27L
EC50, cAMP [1]: 2660 pM
EC50, cAMP [2]: 288 pM

B16: HEC-G98 (Fc fusion)
chain: B1 chain with G2S, I17K, R20Q, I23V, I27L
EC50, cAMP [1]: 18100 pM
EC50, cAMP [2]: 321 pM

B17: HEC-G105 (Fc fusion)
chain: B1 chain with G29Q
EC50, cAMP [1]: 6950 pM
EC50, cAMP [2]: 1920 pM

B18: HEC-G95 (Fc fusion)
chain: B1 chain with I17L, R20Q, D21A, I23V, E24N, I27L
EC50, cAMP [1]: 16100 pM
EC50, cAMP [2]: 2220 pM

B19: HEC-G90 (Fc fusion)
chain: B1 chain with I17Q, R20Q, I23V, I27L
EC50, cAMP [1]: 105000 pM
EC50, cAMP [2]: 945 pM

B20: HEC-G88 (Fc fusion)
chain: B1 chain with I17K, R20Q
EC50, cAMP [1]: 155 pM
EC50, cAMP [2]: 258 pM

B21: HEC-G104 (Fc fusion)
chain: B1 chain with I17K, R20Q, G29Q
EC50, cAMP [1]: 14900 pM
EC50, cAMP [2]: 762 pM

B22: HEC-G101 (Fc fusion)
chain: B1 chain with I17K, R20Q, E24D, I27L
EC50, cAMP [1]: 7470 pM
EC50, cAMP [2]: 177 pM

B23: HEC-G122 (Fc fusion)
chain: B1 chain with G2S, Y13L, D21E
EC50, cAMP [1]: 155 pM
EC50, cAMP [2]: 23 pM

B24: HEC-G102 (Fc fusion)
chain: B1 chain with I17K, E24N, G29Q
EC50, cAMP [1]: 378 pM
EC50, cAMP [2]: 545 pM

B25: HEC-G92 (Fc fusion)
chain: B1 chain with I17Q, I23V, E24N, I27L
EC50, cAMP [1]: 1640 pM
EC50, cAMP [2]: 677 pM

B26: HEC-G130 (Fc fusion)
chain: B1 chain with G2S, Y13L, I17K, I23V, E24Q
EC50, cAMP [1]: 52 pM
EC50, cAMP [2]: 318 pM

B27: HEC-G125 (Fc fusion)
chain: B1 chain with G2S, Y13L, D21A, I23V, E24Q
EC50, cAMP [1]: 354 pM
EC50, cAMP [2]: 57 pM

B28: HEC-G116 (Fc fusion)
chain: B1 chain with Y1H, G2S, Y13L, D21E, I27L
EC50, cAMP [1]: 42 pM
EC50, cAMP [2]: 34 pM

B29: HEC-G123 (Fc fusion)
chain: B1 chain with G2S, Y13L, D21E, I23V, E24Q, I27L
EC50, cAMP [1]: 1050 pM
EC50, cAMP [2]: 12 pM

B30: HEC-G121 (Fc fusion)
chain: B1 chain with G2S, Y13L, D21A, I27L
EC50, cAMP [1]: 417 pM
EC50, cAMP [2]: 36 pM

B31: HEC-G106 (Fc fusion)
chain: B1 chain with Y13L, I17K, I23V, I27L
EC50, cAMP [1]: 945 pM
EC50, cAMP [2]: 477 pM

B32: HEC-G132 (Fc fusion)
chain: B1 chain with Y13L, I23V
EC50, cAMP [1]: 285 pM
EC50, cAMP [2]: 27 pM

B33: HEC-G96 (Fc fusion)
chain: B1 chain with G2S, I23V, I27L
EC50, cAMP [1]: 3660 pM
EC50, cAMP [2]: 547 pM

B34: HEC-G115 (Fc fusion)
chain: B1 chain with G2S, Y13L, D21E, I27L
EC50, cAMP [1]: 1080 pM
EC50, cAMP [2]: 42 pM

B35: HEC-G127 (Fc fusion)
chain: B1 chain with G2S, Y13L, I17K, I27L
EC50, cAMP [1]: 477 pM
EC50, cAMP [2]: 42 pM

B36: HEC-G91 (Fc fusion)
chain: B1 chain with I23V, I27L
EC50, cAMP [1]: 5700 pM
EC50, cAMP [2]: 2160 pM

B37: HEC-G107 (Fc fusion)
chain: B1 chain with I17K, R20H, I23V, I27L
EC50, cAMP [1]: 6470 pM
EC50, cAMP [2]: 235 pM

B38: HEC-G131 (Fc fusion)
chain: B1 chain with G2S, Y13L, I23V
EC50, cAMP [1]: 277 pM
EC50, cAMP [2]: 28 pM

B39: HEC-G118 (Fc fusion)
chain: B1 chain with Y1H, G2S, Y13L, R20K, D21E, I27L
EC50, cAMP [1]: 76 pM
EC50, cAMP [2]: 39 pM

B40: HEC-G94 (Fc fusion)
chain: B1 chain with L14M, I17L, R20Q, D21A, I23V, I27L
EC50, cAMP [1]: 8280 pM
EC50, cAMP [2]: 255 pM

B41: HEC-G119 (Fc fusion)
chain: B1 chain with G2S, Y13L, R20K, D21E, I27L
EC50, cAMP [1]: 8740 pM
EC50, cAMP [2]: 25 pM

B42: HEC-G129 (Fc fusion)
chain: B1 chain with G2S, Y13L, I17K
EC50, cAMP [1]: 66 pM
EC50, cAMP [2]: 59 pM

B43: HEC-G124 (Fc fusion)
chain: B1 chain with G2S, Y13L, D21E, I23V, E24Q
EC50, cAMP [1]: 168 pM
EC50, cAMP [2]: 24 pM
